The record followed here is the supplement of paper PMC10441789.

The other results are listed elsewhere or left out. Antibody binding of pooled human sera (four to six donors per pool; dilution not stated) to peptides of the Trypanosoma cruzi antigen TSSA on microarrays. Quantile-normalised fluorescence in arbitrary units, mean of duplicate arrays; higher = more binding. No active / inactive call. The uninfected pools are read here as the healthy donors of the same country. The strongest signals lie near the top of the scale (about 60,000).

One assay relates to pooled sera of chronic Chagas disease patients, Argentina. As to the kind of experiment: antibody binding signal (normalised fluorescence) (arbitrary fluorescence units); higher = stronger serum antibody binding to peptide. The protocol:
(§1)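 Microarray of 15-residue peptides over residues 30-55 of Trypanosoma cruzi TSSAII, each with 1 to 10 substitutions at naturally variable positions, probed with one serum pool per country.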
SGTDKKPATGETPSQ: the antibody binding signal came to 32800.
Same read-out and setting: the figure for SGKEKKTATGGAPSQ is 3560; for TDNKTAAGGTPSPPG it is 1180.
For KKPATGGAPSPPGAS, the antibody binding signal was 508.
Turning to KDKKPATGEAPSPSG, the antibody binding signal is 42400.
The same measure, in the same setting: next, KDNKAATGGTPSQPG: 300; SSTPPSGKENKPAAG: 41700; SGTENKTAAGETPSP: 31900.
For the sequence GTENKAATGETPSQS, the antibody binding signal was determined as 34200.
STPPSGTENKTAAGG gave an antibody binding signal of 47500.
Still for that read-out and setting: next, TENKTATGGAPSPSG: 24300.
The same measure, in the same setting: next, PSGTDNKPAAGGTPS: 30500; GTENKAATGGTPSPP: 39200.
In turn, GKEKKAATGETPSQP registered an antibody binding signal of 6120.
Same read-out and setting: the figure for TEKKAAAGGAPSPSG is 839; for PPSGKDNKAATGEAP it is 21100.
In turn, DKKPAAGEAPSPSGA displayed an antibody binding signal of 526.
Consider GTDKKPAAGEAPSQS, for which the antibody binding signal amounted to 715.
As for DNKPAAGGAPSPSGA, the antibody binding signal amounted to 218.
Regarding TEKKAAAGGAPSPPG, the antibody binding signal worked out at 784.
For the sequence PPSGKDKKPAAGEAP, the antibody binding signal was 1450.
The sequence PPSGTEKKAATGEAP showed an antibody binding signal of 28500.
Sequence NKAAAGETPSPSGAS showed an antibody binding signal of 241.
Same read-out and setting: the figure for TISTPPSGKDKKAAA is 21300; for KTATGETPSQSGASS it is 917.
Consider GKDKKAAAGEAPSQP, for which the antibody binding signal was 1120.
As to GKEKKPAAGGAPSQP, the antibody binding signal came out at 4220.
In the case of PSGTDNKAATGGAPS, the antibody binding signal was determined as 23100.
Still for that read-out and setting: the figure for TPPSGKEKKPAAGGA is 11100.
For the sequence TEKKTATGEAPSQSG, the antibody binding signal stood at 12500.
In the case of TDNKAAAGGTPSQPG, the antibody binding signal was found to be 246.
On the same count and under the same terms, the figure for ENKAATGEAPSPSGA is 25700; for KKTATGEAPSQSGAS it is 2540; for GKDKKPATGEAPSPS it is 42300.
In the case of KENKAAAGGTPSPSG, the antibody binding signal amounted to 167.
As to TDKKPATGETPSQSG, the antibody binding signal was found to be 30000.
On to DKKAATGETPSPSGA, for which the antibody binding signal is 1050.
As to STPPSGKDKKAAAGE, the antibody binding signal amounted to 11100.
TISTPPSGKDNKTAA registered an antibody binding signal of 7940.
As for TPPSGTDNKAATGEA, the antibody binding signal came to 30100.

The next assay concerns pooled sera of chronic Chagas disease patients, Bolivia. The assay is described as above. The protocol:
as §1
In turn, SGTDKKPATGETPSQ displayed an antibody binding signal of 26300.
On to SGKEKKTATGGAPSQ, for which the antibody binding signal worked out at 253.
As to TDNKTAAGGTPSPPG, the antibody binding signal stood at 221.
Take KKPATGGAPSPPGAS: the antibody binding signal is 699.
Sequence KDKKPATGEAPSPSG gave an antibody binding signal of 11000.
In the case of KDNKAATGGTPSQPG, the antibody binding signal is 242.
The same measure, in the same setting: the figure for SSTPPSGKENKPAAG is 7790; for SGTENKTAAGETPSP it is 7350.
Still for that read-out and setting: next, GTENKAATGETPSQS: 10200; STPPSGTENKTAAGG: 48000; TENKTATGGAPSPSG: 926.
Same read-out and setting: the figure for PSGTDNKPAAGGTPS is 11000; for GTENKAATGGTPSPP it is 1350.
Sequence GKEKKAATGETPSQP returned an antibody binding signal of 464.
In turn, TEKKAAAGGAPSPSG yielded an antibody binding signal of 246.
As for PPSGKDNKAATGEAP, the antibody binding signal worked out at 28100.
The sequence DKKPAAGEAPSPSGA registered an antibody binding signal of 193.
The same measure, in the same setting: next, GTDKKPAAGEAPSQS: 7280; DNKPAAGGAPSPSGA: 620.
For the sequence TEKKAAAGGAPSPPG, the antibody binding signal worked out at 218.
Same read-out and setting: next, PPSGKDKKPAAGEAP: 1030; PPSGTEKKAATGEAP: 34300; NKAAAGETPSPSGAS: 844.
Sequence TISTPPSGKDKKAAA had an antibody binding signal of 433.
As to KTATGETPSQSGASS, the antibody binding signal is 4470.
GKDKKAAAGEAPSQP gave an antibody binding signal of 2830.
The sequence GKEKKPAAGGAPSQP yielded an antibody binding signal of 247.
The sequence PSGTDNKAATGGAPS gave an antibody binding signal of 14100.
For the sequence TPPSGKEKKPAAGGA, the antibody binding signal amounted to 231.
TEKKTATGEAPSQSG: the antibody binding signal worked out at 26100.
Same read-out and setting: the figure for TDNKAAAGGTPSQPG is 447; for ENKAATGEAPSPSGA it is 43900.
Consider KKTATGEAPSQSGAS, for which the antibody binding signal is 7870.
Consider GKDKKPATGEAPSPS, for which the antibody binding signal is 9370.
Consider KENKAAAGGTPSPSG, for which the antibody binding signal worked out at 216.
The sequence TDKKPATGETPSQSG returned an antibody binding signal of 25100.
Consider DKKAATGETPSPSGA, for which the antibody binding signal stood at 693.
Same read-out and setting: the figure for STPPSGKDKKAAAGE is 1490; for TISTPPSGKDNKTAA it is 1650; for TPPSGTDNKAATGEA it is 33600.

A further assay concerns pooled sera of chronic Chagas disease patients, Brazil. Described as above. The protocol:
as §1
Consider SGTDKKPATGETPSQ, for which the antibody binding signal was determined as 34600.
The same measure, in the same setting: next, SGKEKKTATGGAPSQ: 3340; TDNKTAAGGTPSPPG: 237; KKPATGGAPSPPGAS: 466.
With KDKKPATGEAPSPSG, the antibody binding signal turned out to be 39800.
In turn, KDNKAATGGTPSQPG showed an antibody binding signal of 2080.
SSTPPSGKENKPAAG registered an antibody binding signal of 25800.
Take SGTENKTAAGETPSP: the antibody binding signal was 13200.
Turning to GTENKAATGETPSQS, the antibody binding signal worked out at 23800.
For the sequence STPPSGTENKTAAGG, the antibody binding signal was found to be 51700.
In turn, TENKTATGGAPSPSG returned an antibody binding signal of 757.
On the same count and under the same terms, the figure for PSGTDNKPAAGGTPS is 45900; for GTENKAATGGTPSPP it is 718; for GKEKKAATGETPSQP it is 28600.
In turn, TEKKAAAGGAPSPSG registered an antibody binding signal of 263.
In turn, PPSGKDNKAATGEAP had an antibody binding signal of 25300.
Still for that read-out and setting: the figure for DKKPAAGEAPSPSGA is 12700.
For GTDKKPAAGEAPSQS, the antibody binding signal was 20900.
Take DNKPAAGGAPSPSGA: the antibody binding signal was determined as 3070.
For the sequence TEKKAAAGGAPSPPG, the antibody binding signal is 257.
Take PPSGKDKKPAAGEAP: the antibody binding signal worked out at 1330.
PPSGTEKKAATGEAP had an antibody binding signal of 25100.
Same read-out and setting: next, NKAAAGETPSPSGAS: 10600; TISTPPSGKDKKAAA: 760.
Sequence KTATGETPSQSGASS returned an antibody binding signal of 6660.
In turn, GKDKKAAAGEAPSQP displayed an antibody binding signal of 29900.
Turning to GKEKKPAAGGAPSQP, the antibody binding signal is 1170.
Regarding PSGTDNKAATGGAPS, the antibody binding signal was 45300.
In the case of TPPSGKEKKPAAGGA, the antibody binding signal worked out at 332.
Turning to TEKKTATGEAPSQSG, the antibody binding signal is 18300.
On the same count and under the same terms, next, TDNKAAAGGTPSQPG: 1700.
Still for that read-out and setting: next, ENKAATGEAPSPSGA: 37200; KKTATGEAPSQSGAS: 12400; GKDKKPATGEAPSPS: 39600.
The same measure, in the same setting: next, KENKAAAGGTPSPSG: 159.
TDKKPATGETPSQSG came in with an antibody binding signal of 32400.
On to DKKAATGETPSPSGA, for which the antibody binding signal was 12500.
Sequence STPPSGKDKKAAAGE gave an antibody binding signal of 4100.
On the same count and under the same terms, next, TISTPPSGKDNKTAA: 3390; TPPSGTDNKAATGEA: 43200.
